Test results published in PubChem BioAssay AID504832 (National Center for Advancing Translational Sciences (NCATS), 2011).
Among all 310,000 compounds or so, about 18,000 (5.8%) were called active. Inconclusive results, whose numbers are uncertain, are shown with a selection of clear calls. Calls come from the whole dose curve; as a rule, active = well fitted inhibition curve with a large enough effect; inconclusive = small, poorly fitted or top-dose-only effect, or another doubt; inactive = no such curve, though single readings can be large or run the other way. No potency is given beside an inconclusive call; the fits are too rough.

assay: Primary qHTS for delayed death inhibitors of the malarial parasite plastid, 48 hour incubation; conditions: P. falciparum luciferase growth in erythrocytes; series mostly up to 28.7 µM; activity change, negative = inhibition: at the top concentration
In short: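 Firefly luciferase activity from engineered P. falciparum reports growth; inhibitors lower the luminescent signal. Cultures contained 2% hematocrit erythrocytes at 0.1% final parasitemia.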
% is set by controls: 0 for no effect and ±100 for the full control effect; potency is the fitted concentration of half-maximal effect; tags give direction and shape of the fitted curve.

Compound | Potency | activity change, negative = inhibition
CCN(CC)CCCNc1nc2cc(OC)c(OC)cc2c2nc(-c3ccccc3)nn12 | active: 2.33 µM | 
CC(=O)Nc1ccc(NC(=O)CC2(CC(=O)N3CCOCC3)CCCC2)cc1 |  | inactive: -3.87%
O=C(NCCc1ccccn1)c1ccc(OC2CCN(Cc3ccccn3)CC2)cc1 |  | inactive: -12.8%
N/C(=N\OC(=O)c1cccc([N+](=O)[O-])c1)c1ccccn1 |  | inactive: 365%
CNC(=O)CN(c1ccc(C23CC4CC(CC(C4)C2)C3)cc1)S(C)(=O)=O | inconclusive [inhibitor, partial curve, poor fit] | 
Nc1nc(NCCN2CCOCC2)nc(NCc2ccccc2)c1[N+](=O)[O-] | active: 6.57 µM | 
O=C(Nc1c2c(nn1-c1ccc(F)cc1)CS(=O)C2)c1ccc(Br)o1 (centres undefined) | inconclusive [inhibitor, single point] | 
CNC(=S)NNC(=O)c1ccc2c(c1)OCO2 |  | inactive: 6.85%
N#Cc1ccccc1NS(=O)(=O)c1cc2c3c(c1)CCC(=O)N3CCC2 | inconclusive [inhibitor, partial curve] | 
Cc1ccc(/C=N/NC(=O)CSc2nc3ccccc3c(=O)n2-c2ccccc2C)s1 |  | inactive: -29.7%
CCOC(=O)c1c(C)[nH]c(C(=O)OCC(=O)NC2(C#N)CCCCC2)c1C | inconclusive [inhibitor, single point] | 
Cc1ccc(NC(=O)CCn2nnc3ccccc32)c(C)c1 |  | inactive: 3.22%
CCn1nnnc1SCC(=O)N1CCCc2ccccc21 |  | inactive: 19.8%
COc1ccc(C(=O)NCCCOc2cccc(NC(C)=O)c2)cc1 |  | inactive: -16.8%
CCc1nnc(NC(=O)CCC(=O)Nc2ccc(C)cc2)s1 | inconclusive [inhibitor, single point] | 
COc1ccccc1OCCCn1cc(C=O)c2ccccc21 |  | inactive: 134%
COc1cc(/C=N/N(C)c2ccccc2)cc(Cl)c1O |  | inactive: 4.69%
COc1ccc(CCN(C)C2CCCN(C(=O)CCSC)C2)cc1OC (centres undefined) |  | inactive: -6.94%
O=C(CN1C(=O)c2ccccc2C1=O)NCCOc1ccccc1 |  | inactive: 11.8%
Cc1cccc(NS(=O)(=O)c2nnc(NC(=O)c3ccc(Cl)cc3)s2)c1 | inconclusive [inhibitor, full curve, poor fit] | 
CCOC(=O)c1c(N2C(=O)Nc3ccccc3N2O)sc2c1CCCC2 |  | inactive: -16%
COc1ccc(NC(=O)Cn2c(=O)oc3ccccc32)cc1 |  | inactive: 0.354%
CN(c1ccccc1)S(=O)(=O)c1ccc(Cl)c(C(=O)NC2=NCCS2)c1 | inconclusive [inhibitor, single point] | 
CCNc1ccc(C(=O)OCC)cc1NC(=O)c1cc(S(=O)(=O)N2CCOCC2)ccc1C | inconclusive [inhibitor, partial curve, poor fit] | 
COc1cccc(CNC(=O)CSCC(=O)Nc2ccc(C)cc2)c1 | inconclusive [inhibitor, single point] | 

Compound | Potency | activity change, negative = inhibition
CC(Sc1nnc(-c2ccccc2Br)o1)C(=O)N1CCOCC1 (centres undefined) |  | inactive: 6.42%
Cc1ccc(-n2cc(CN3CCNC(=O)CC3)c(-c3cccc(C)c3)n2)cc1 | inconclusive [inhibitor, single point] | 
CCOc1ccc(CN2CCN(Cc3nc(C(C)C)cs3)CC2CCO)cc1 (centres undefined) | inconclusive [inhibitor, partial curve, poor fit] | 
Oc1ccc(-c2nc(-c3ccc(F)cc3)c(-c3ccncc3)[nH]2)cc1 | inconclusive [inhibitor, single point] | 
CC1CCCC(C)N1CC(O)COc1ccc(Cl)cc1 (centres undefined) | inconclusive [inhibitor, single point] | 
N=c1ccn(Cc2ccc([N+](=O)[O-])cc2)cc1 | active: 4.15 µM | 
O=C(CCS(=O)(=O)Cc1ccccc1)N1CCN(c2ccc([N+](=O)[O-])cc2)CC1 | inconclusive [inhibitor, partial curve, poor fit] | 
O=c1[nH]c(CN2CC=C(c3ccccc3)CC2)nc2scc(-c3ccccc3)c12 | inconclusive [inhibitor, single point] | 
CCCCn1nc(C(=O)N2CCN(S(=O)(=O)c3ccccc3)CC2)c2ccccc2c1=O | inconclusive [inhibitor, single point] | 
COc1cc2c(cc1OC)C(c1cccc([N+](=O)[O-])c1)N(C(=O)c1ccccc1C(=O)O)CC2 (centres undefined) | inconclusive [inhibitor, single point] | 
Cc1ccn2c(=O)nc(SCC(=O)N3CCCC3)nc2c1 |  | inactive: 20.3%
Cc1ccc(CNC(=O)CSc2ccc(-c3ccco3)nn2)cc1 |  | inactive: 13.6%
O=C1OC(c2ccccc2)=C/C1=C/N1CCCCC1 |  | inactive: 140%
CC(=O)c1ccc(S(=O)(=O)N2CCN(CC(=O)NC(=O)NC3CCCCC3)CC2)cc1 | inconclusive [inhibitor, single point] | 
CCc1nc2ccc(C(=O)N3CCN(c4ccccc4F)CC3)cc2nc1CC |  | inactive: -7.21%
CC(NC(=O)NC(=O)c1cccc([N+](=O)[O-])c1)C1CC1 (centres undefined) | active: 10.4 µM | 
O=C(CCn1c(=O)oc2ccccc21)N1CCN(C(c2ccccc2)c2ccccc2)CC1 | active: 5.86 µM | 
Cc1ccccc1NC(=O)Cc1nc(COC(=O)COc2ccc(C(C)(C)C)cc2)cs1 | inconclusive [inhibitor, single point] | 
Cc1ccc(CN2CCSc3ccc(C(=O)N4CCOCC4)cc32)cc1 | inconclusive [inhibitor, single point] | 
Cc1cc(/C=N/O)c(C)n1-c1ccccc1 | inconclusive [inhibitor, partial curve, poor fit] | 
Cc1cc(N/N=C/c2ccc(O)cc2O)nc(-c2ccccc2O)n1 | active: 2.62 µM | 
Cc1ccc(NC(=O)C2SC(=Nc3ccccc3)C(C(=O)Nc3ccc(Cl)cc3)=C2N)cc1 (centres undefined) | inconclusive [inhibitor, single point] | 
O=C(N/N=C/c1ccccn1)c1cc(-c2ccc(Br)s2)[nH]n1 | inconclusive [inhibitor, single point] | 
CC1C(=O)Nc2ccc(S(=O)(=O)N3CCCCCC3)cc21 (centres undefined) | inconclusive [inhibitor, single point] | 
COc1ccc(C(C)=O)cc1CN1C(=O)NC(c2ccccc2)(c2ccccc2)C1=O | inconclusive [inhibitor, single point] | 

Compound | Potency | activity change, negative = inhibition
Cc1ccc(C(=O)N2CCN(Cc3ccccc3)CC2)o1 | inconclusive [inhibitor, single point] | 
Cc1ccc2cc(C)c3nnc(SCC(=O)NCc4ccco4)n3c2c1 | inconclusive [inhibitor, single point] | 
COC(=O)c1cccc(NC(=S)Nc2cccc(Cl)c2Cl)c1 |  | inactive: 43.7%
O=C1OC(Cc2ccccn2)C(O)=C1C1=NCCCN1 (centres undefined) |  | inactive: 74.1%
CC(O)CNc1nc2sc3c(c2c(=O)n1Cc1ccco1)CCCCC3 (centres undefined) | inconclusive [inhibitor, single point] | 
COc1ccccc1S(=O)(=O)Cc1ccc(C(=O)NCc2cccs2)o1 | active: 0.828 µM | 
CC1(C)CC(=O)C(C2=NC3(CCCCCC3)Cc3ccccc32)=C(O)C1 | inconclusive [inhibitor, single point] | 
CS(=O)(=O)N1CCc2cc(-c3csc(NC(=O)Cc4cccs4)n3)ccc21 |  | inactive: -23.2%
COc1ccc(NS(=O)(=O)c2cccc(N/C(=N\S(=O)(=O)c3ccccc3)c3ccc(F)cc3)c2)cc1 | inconclusive [inhibitor, single point] | 
CC(C)[C@@H](CO)NC(=O)c1ccc2c3n(nc2c1)-c1ccccc1CO3 |  | inactive: 219%
COc1ccc2c(c1)C1C=CCC1C(c1cc3c(cc1Br)OCO3)N2 (centres undefined) | inconclusive [inhibitor, partial curve, poor fit] | 
Cc1ccc(S(=O)(=O)N2[C@@H](c3ccc(F)cc3)C(C(=O)O)=CC[C@H]2c2cccc(C)c2)cc1 | inconclusive [inhibitor, single point] | 
COc1ccc(C(=O)CSc2nnc(COc3ccccc3)n2Cc2ccco2)cc1 | inconclusive [inhibitor, single point] | 
Cn1c(=O)c2c(nc(SCCN3CCOCC3)n2C)n(C)c1=O | inconclusive [inhibitor, single point] | 
COC(=O)c1ccc(CSc2ncnc3c2oc2ccccc23)o1 |  | inactive: -5.74%
O=C(Nc1ccc(F)cc1)C1CCCN1S(=O)(=O)c1ccc(Br)cc1 (centres undefined) | inconclusive [inhibitor, partial curve] | 
CC1CCc2c(nc3sc4c(c3c2N)CCCC4)C1 (centres undefined) |  | inactive: -77.7%
Cc1ccc(NC(=O)CN(Cc2ccco2)Cc2ccccc2O)cc1C | inconclusive [inhibitor, full curve] | 
COc1ccc(-c2cc3nc(C)c(CCC(=O)NCc4ccco4)c(C)n3n2)c(OC)c1 | inconclusive [inhibitor, partial curve, poor fit] | 
CC(SCC(=O)O)c1nc2ccccc2[nH]1 (centres undefined) |  | inactive: 19.4%
Nc1ncccc1OCc1ccc(Br)cc1 |  | inactive: 149%
Cc1c(C(=O)OCC(=O)Nc2ccc(C(N)=O)cc2)cccc1[N+](=O)[O-] |  | inactive: -5.17%
COc1ccc(NC(=O)CSc2nc3ccccc3c(=O)n2CCCO)cn1 | inconclusive [inhibitor, single point] | 
O=C(O)c1ccc2c(c1)C(=O)N([C@H](Cc1ccc(O)cc1)C(=O)O)C2=O | inconclusive [inhibitor, single point] | 
